Structures are written as SMILES. The campaign covered roughly 150,000 compounds. About 540 (0.36%) showed an effect of 50% or more. The list shows a part of the results.

In the assay the test system is Plasmodium falciparum. As to the kind of experiment: Primary screen in NF54 nanoGlo assay, in single point, at 2uM, 72h; a lower Z score goes with more inhibition. It is filed as functional, Erythrocyte. To be noted: timepoint 72 hour.
For `CCn1cc(CN(Cc2cc(OC)ccn2)CC(C)C)cn1`, the % Inhibition (commonly the relative decrease from the control value, in per cent) is recorded as -13% and the Z score is recorded as 2.49.

Take `CN(C)C[C@@]12CN(Cc3ccccc3)C[C@@H]1CN(C(=O)c1ccccn1)C2`: the “% Inhibition” value is -3% and the Z score worked out at 0.46.

Consider `CC1CC1c1ccc(CN(C)S(=O)(=O)N(C)C)o1` (stereo unspecified), for which the “% Inhibition” value is listed as -6% and the Z score came out at 0.62.

Take `O=c1c2ccccc2sn1Cc1noc([C@@H]2CCCO2)n1`: the “% Inhibition” value was -11% and the Z score stood at 1.93.

`O=C(Nc1cnn2c1CCCC2)c1cccn1Cc1ccccc1`: the “% Inhibition” value is -6% and the Z score stood at 0.98.

Take `Cn1cccc(C(=O)N2CCc3cc(-c4ccncc4)ccc32)c1=O`: the “% Inhibition” value was 3% and the Z score is -0.6.

For `COc1ccc(N2CCN(C(=O)CCC(=O)N3CCNC(=O)C3)CC2)cc1`, the “% Inhibition” value is -4% and the Z score amounted to 0.59.

In the case of `O=S(=O)(c1ccc2c(c1)CCC2)N1CC(Cc2nc(-c3cccnc3)no2)C1`, the “% Inhibition” value was -1% and the Z score turned out to be 0.12.

Consider `CCCCc1ccc(N2CC(C(=O)N3CCC(CO)C3)CC2=O)cc1` (stereo unspecified), for which the “% Inhibition” value was -16% and the Z score was 1.43.

Regarding `CCCc1nnc(NC(=O)c2ccc3ccccc3n2)s1`, the “% Inhibition” value is given as -10% and the Z score worked out at 2.05.

Turning to `CC(C)C(=O)N1CCc2ccc(OC(C)C(=O)N3CCOCC3)cc2C1c1ccccc1` (stereo unspecified), the “% Inhibition” value is -11% and the Z score was determined as 1.6.

As to `C=CCC1(OC)CCN(C[C@]2(O)CCCN(CCc3ccccc3)C2=O)CC1`, the “% Inhibition” value is recorded as -8% and the Z score turned out to be 1.09.

Take `Cc1n[nH]c(C)c1CN[C@H]1CCCC[C@@H]1F`: the “% Inhibition” value is on record as -13% and the Z score worked out at 1.51.

In the case of `CC(C)NC(=O)NC[C@H]1O[C@@H](CO)[C@@H](O)[C@H]1N1CCN(c2ccccn2)CC1`, the “% Inhibition” value was 11% and the Z score was -1.3.

Take `CC(C)Cn1ncnc1Cn1cnccc1=O`: the “% Inhibition” value was -4% and the Z score worked out at 0.59.

For the molecule `CN(C)S(=O)(=O)N(C)CCOC(=O)c1cccc(-n2ccnc2)n1`, the “% Inhibition” value was -18% and the Z score is listed as 1.64.

As to `COc1ccc(C(=O)N[C@H]2CCCc3ccc(F)cc32)nn1`, the “% Inhibition” value is listed as -5% and the Z score is given as 0.7.

With `O=C1CC(C(=O)N[C@H]2CCN(c3ccc(F)c(Cl)c3)C2=O)C1`, the “% Inhibition” value is recorded as -5% and the Z score came out at 0.84.

With `C[C@]1(NC(=O)c2ccn(C3CCCCC3)n2)CCNC1=O`, the “% Inhibition” value was -8% and the Z score was 1.55.

`Cc1cc(=O)c(C(=O)N(C)Cc2noc(-c3ccccc3)n2)c[nH]1`: the “% Inhibition” value is given as -18% and the Z score is given as 2.09.

On to `CC(C)COC1CCN(Cc2ccc(OCc3ccccc3F)nc2)CC1`, for which the “% Inhibition” value is listed as -9% and the Z score was found to be 1.24.

As to `Cc1ncsc1CCNc1ncc(F)c(N(C)C)n1`, the “% Inhibition” value is -2% and the Z score stood at 0.38.

With `O=C(CN1CCN(C(=O)Nc2ccc(F)cc2)CC1=O)N1CCN(c2ccccc2)CC1`, the “% Inhibition” value is given as -11% and the Z score amounted to 1.99.

Regarding `O=C(NCCn1ccnc1)c1ccc2c(c1)OCCO2`, the “% Inhibition” value was -5% and the Z score is recorded as 1.04.

Consider `CCOC(C)c1nc(CN(C)C(=O)C2CCCOC2)cs1` (stereo unspecified), for which the “% Inhibition” value is on record as -5% and the Z score is 0.54.

`NC(=O)CCN[C@@H](CCCc1ccccc1)c1ccccc1`: the “% Inhibition” value is -3% and the Z score was determined as 0.31.

For `NC(=NCCc1nccn1Cc1ccccc1)N1CCCCCC1`, the “% Inhibition” value is on record as 1% and the Z score is given as -0.12.

`N#Cc1c(-c2ccc(Cl)cc2Cl)cc(-c2ccncc2)nc1N`: the “% Inhibition” value came to 2% and the Z score is -0.22.

With `COc1ccc(C2(C(=O)N(C)c3ccn(C)n3)CC3(CCC3)C2)cc1`, the “% Inhibition” value was -9% and the Z score was 1.05.

On to `COCc1ccc(C(=O)N[C@H]2CC[C@@H](C(=O)NCCn3cccn3)C2)o1`, for which the “% Inhibition” value was -9% and the Z score turned out to be 1.08.

As for `COc1ccccc1NC(=O)C[C@H]1C(=O)Nc2c(C)c(-c3ccc(F)cc3)nn21`, the “% Inhibition” value was -7% and the Z score was determined as 1.12.

Take `CN(CCO)C[C@H](O)c1ccccc1Cl`: the “% Inhibition” value is -12% and the Z score came out at 1.89.

Regarding `CN(C)c1ccc2c(c1)OCCN2CC(=O)Nc1cc(Cl)ccc1-n1cncn1`, the “% Inhibition” value turned out to be 1% and the Z score is on record as -0.11.

Turning to `O=C(Cn1c(-c2cccs2)cc2cc(Cl)ccc21)N1CCN(c2ccccc2F)CC1`, the “% Inhibition” value was 17% and the Z score was -2.15.

Regarding `Cc1noc(C)c1[C@@H](C)CNC(=O)c1c(O)cc(Cl)cc1Cl`, the “% Inhibition” value was -13% and the Z score is recorded as 2.51.

In the case of `CCCCc1nc(CN2CCCn3nc(CNC(=O)N(C)C)cc3C2)c[nH]1`, the “% Inhibition” value is given as -18% and the Z score is given as 2.6.

Take `COc1cccc(S(=O)(=O)N2CCN(C)[C@@H]3CS(=O)(=O)C[C@@H]32)c1`: the “% Inhibition” value is reported as -3% and the Z score worked out at 0.35.

With `OCC#Cc1ccc(CN2CCCC[C@@H]2CN2CCCC2)s1`, the “% Inhibition” value is reported as -4% and the Z score was determined as 0.85.

Turning to `COc1cccc(-n2ccc(=O)c(-c3nc(-c4ccc(C)c(C)c4)no3)n2)c1`, the “% Inhibition” value is 5% and the Z score is listed as -0.85.

For the molecule `COc1ccc(Cn2ncc(C)c2NC(=O)[C@H](C)n2cncn2)cc1OC`, the “% Inhibition” value is on record as -4% and the Z score is given as 0.44.

Regarding `CCCN(C)CC1(O)CCC2(CCN(C(=O)CCc3ccccc3)CC2)CC1`, the “% Inhibition” value was 7% and the Z score was -0.9.

For the molecule `CC(=O)N1CCC[C@H](Nc2nc(-c3ccncc3)nc3c2CCNC3)C1`, the “% Inhibition” value worked out at 0% and the Z score was -0.02.

Turning to `O=C(CC(c1ccccc1)c1ccccc1)N1CC(=O)N2CCc3ccccc3[C@@H]2C1`, the “% Inhibition” value turned out to be 39% and the Z score is -5.29.

The values are drawn from ChEMBL document CHEMBL4888484, “Replenishing the malaria drug discovery pipeline: Screening and hit evaluation of the MMV Hit Generation Library 1 (HGL1) against asexual blood stage Plasmodium falciparum ,using a nano luciferase reporter read-out” (2022).
